This is one part of the list. Single values of this set are uncertain.
Test system: U2OS
Test: Cell Painting induction (percent of morphological features significantly changed vs DMSO); higher = stronger morphological change
Settings: 10 µM, 20 h
Experimental: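 Cell Painting assay in U2OS cells: compounds at 10 µM for 20 h, six dyes, 579 robust CellProfiler features as Z-scores vs DMSO median (MAD). Induction is the % of significantly changed features (active if ≥5%); relative cell count is in % of DMSO. The primary run holds DCM compounds preselected for induction ≥10%; the confirmation repeat defines active compounds (370 of 549). Replicate agreement is low, attributed to precipitation.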

[1] = run: primary screen (compounds selected for induction >=10%)
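Further: stains mark DNA, RNA and nucleoli, ER, actin, Golgi, plasma membrane and mitochondria, read by high-content imaging, with DMSO controls at matching solvent concentration.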

In the case of `CCN1CCCc2cc(CN(CCN3CCOCC3)C(=S)Nc3cccc(Cl)c3)ccc21`, the “Cell Painting induction” value (run: confirmation repeat) is reported as active: 24% and the “Cell Painting induction” value [1] is reported as 29.2%.

For `COc1ccccc1N(CC(O)Cn1c(C)nc2ccccc21)S(=O)(=O)c1ccccc1` (stereo not given), the “Cell Painting induction” value (run: confirmation repeat) was inactive: 1% and the “Cell Painting induction” value [1] was 13.8%.

For `COc1cc(NC(=O)c2cnc(NCc3ccccc3)nc2C)cc(OC)c1OC`, the “Cell Painting induction” value (run: confirmation repeat) was active: 12.1% and the “Cell Painting induction” value [1] was 10.7%.

For `CCC1CCCCN1CCNC(=O)C1CCCN(S(=O)(=O)c2cccc3nsnc23)C1` (stereo not given), the “Cell Painting induction” value (run: confirmation repeat) was active: 5.7% and the “Cell Painting induction” value [1] was 11.7%.

For `COc1ccc(N2CCN(C(=O)c3sc4ncn(CC(=O)N5CCCCC5C)c(=O)c4c3C)CC2)cc1` (stereo not given), the “Cell Painting induction” value (run: confirmation repeat) was active: 28.5% and the “Cell Painting induction” value [1] was 13.5%.

For `COC(=O)c1cc(S(=O)(=O)NCC2CCN(CCc3ccc(OC)cc3)CC2)cn1C`, the “Cell Painting induction” value (run: confirmation repeat) was active: 16.8% and the “Cell Painting induction” value [1] was 16.2%.

`CC(=O)Nc1ccc(NS(=O)(=O)c2cc(-c3cnc(C4CC4)o3)ccc2C)cc1` was tested, and the “Cell Painting induction” value (run: confirmation repeat) was active: 51.3% and the “Cell Painting induction” value [1] was 51.8%.

In the case of `COC(=O)c1ccccc1NC(=O)Cn1c(=O)n(CCC(=O)NC2CCN(Cc3ccccc3)CC2)c(=O)c2ccccc21`, the “Cell Painting induction” value (run: confirmation repeat) is reported as inactive: 1.4% and the “Cell Painting induction” value [1] is reported as 41.3%.

With `O=C(NCCCN1CCOCC1)c1cc(-c2ccc(Cl)c(Cl)c2)on1` the “Cell Painting induction” value (run: confirmation repeat) was active: 23.8% and the “Cell Painting induction” value [1] was 23%.

`CC(=O)Nc1sc2c(c1C(c1cccc(Cl)c1)N1CCN(CCO)CC1)CCCC2` (stereo not given) was tested, and the “Cell Painting induction” value (run: confirmation repeat) was active: 16.2% and the “Cell Painting induction” value [1] was 23.3%.

In the case of `CCOC(=O)C1CCCN(C(=O)c2ccc3c(c2)N(Cc2ccccc2)C(=O)c2ccccc2S3=O)C1` (stereo not given), the “Cell Painting induction” value (run: confirmation repeat) is reported as inactive: 4.1% and the “Cell Painting induction” value [1] is reported as 10.9%.

For `COc1cccc(CNS(=O)(=O)c2cc(-c3cc(C)no3)ccc2C(C)C)c1`, the “Cell Painting induction” value (run: confirmation repeat) was active: 40.8% and the “Cell Painting induction” value [1] was 35.1%.

In the case of `CC1CCCN(CCCNC(=O)c2ccc(CS(=O)(=O)c3c(Cl)cccc3Cl)o2)C1` (stereo not given), the “Cell Painting induction” value (run: confirmation repeat) is reported as active: 16.6% and the “Cell Painting induction” value [1] is reported as 26.8%.

`CCCCNS(=O)(=O)c1ccc2nc(-c3cccnc3)cc(C(=O)NCCCN(CC)CC)c2c1` was tested, and the “Cell Painting induction” value (run: confirmation repeat) was active: 19.7% and the “Cell Painting induction” value [1] was 21.2%.

For `COc1ccc(CN2CCN(Cc3ccccc3F)CC2)c(OC)c1`, the “Cell Painting induction” value (run: confirmation repeat) was inactive: 3.3% and the “Cell Painting induction” value [1] was 11.1%.

`Cc1ccc(S(=O)(=O)c2nc(-c3ccccc3Br)oc2N(C)C)cc1` was tested, and the “Cell Painting induction” value (run: confirmation repeat) was active: 29% and the “Cell Painting induction” value [1] was 19.5%.

In the case of `CCOC(Cn1c(SCC(=O)Nc2cc(C)on2)nc2ccccc2c1=O)OCC`, the “Cell Painting induction” value (run: confirmation repeat) is reported as inactive: 0.3% and the “Cell Painting induction” value [1] is reported as 10.9%.

With `Cc1cccc(N2CCN(C(=O)CCC(=O)N3CCOc4ccc(Cl)cc43)CC2C)c1` (stereo not given) the “Cell Painting induction” value (run: confirmation repeat) was active: 8.5% and the “Cell Painting induction” value [1] was 26.3%.

With `Cc1c(C(=O)Nc2ccc(F)cc2)oc2ccc(S(=O)(=O)N3CCCC3)cc12` the “Cell Painting induction” value (run: confirmation repeat) was active: 30.6% and the “Cell Painting induction” value [1] was 27.8%.

In the case of `Cc1cc2c(cc3c(=O)n(CC(=O)NCCCN4CC(C)CC(C)C4)ncn32)s1` (stereo not given), the “Cell Painting induction” value (run: confirmation repeat) is reported as inactive: 0.7% and the “Cell Painting induction” value [1] is reported as 14.7%.

For `COc1nnc(-c2ccc(N3CCOCC3)c(NC(=O)C3CCCCC3)c2)c2ccccc12`, the “Cell Painting induction” value (run: confirmation repeat) was inactive: 0.5% and the “Cell Painting induction” value [1] was 19.3%.

In the case of `CCOc1ccc(N2C(=O)C3=C(C(c4ccc(Cl)cc4)=NCCN3)C2c2cccnc2)cc1` (stereo not given), the “Cell Painting induction” value (run: confirmation repeat) is reported as active: 29.5% and the “Cell Painting induction” value [1] is reported as 26.1%.

For `CCOc1nc(-c2ccccc2)ccc1-c1noc(-c2cccnc2)n1`, the “Cell Painting induction” value (run: confirmation repeat) was inactive: 0% and the “Cell Painting induction” value [1] was 11.2%.

In the case of `N/C(=N\C(=O)/C=C/c1ccccc1)Nc1nc2ccccc2o1`, the “Cell Painting induction” value (run: confirmation repeat) is reported as active: 16.8% and the “Cell Painting induction” value [1] is reported as 12.1%.

`COc1ccc(C2=C(Nc3ccccc3)c3ccccc3C2=O)cc1` was tested, and the “Cell Painting induction” value (run: confirmation repeat) was active: 13.1% and the “Cell Painting induction” value [1] was 11.1%.

In the case of `CCOc1ccccc1C(=O)NCCCN1CCN(CCCNC(=O)c2ccccc2OCC)CC1`, the “Cell Painting induction” value (run: confirmation repeat) is reported as active: 31.8% and the “Cell Painting induction” value [1] is reported as 38.5%.

`CC(C)(C)c1ccc(C(=O)Nc2ccccc2C(=O)NCCN2CCOCC2)cc1` was tested, and the “Cell Painting induction” value (run: confirmation repeat) was active: 10% and the “Cell Painting induction” value [1] was 26.3%.

In the case of `COc1ccc(-c2noc(N3CCC(C(=O)Nc4cc(OC)c(OC)c(OC)c4)CC3)n2)cc1`, the “Cell Painting induction” value (run: confirmation repeat) is reported as active: 14.3% and the “Cell Painting induction” value [1] is reported as 24.2%.

For `Cc1nn2c(N3CCOCC3)cc(C(C)(C)C)nc2c1-c1ccc(Cl)cc1`, the “Cell Painting induction” value (run: confirmation repeat) was inactive: 0.7% and the “Cell Painting induction” value [1] was 16.8%.

`COc1ccccc1Nc1nn2c(=O)c3ccc(C(=O)N4CCCCC4)cc3nc2s1` was tested, and the “Cell Painting induction” value (run: confirmation repeat) was active: 35.9% and the “Cell Painting induction” value [1] was 22.1%.

In the case of `CCOc1ccc(N(CC)C(=O)c2nn(-c3ccc(OC)cc3)c(=O)c3c2c2ccccc2n3C)cc1`, the “Cell Painting induction” value (run: confirmation repeat) is reported as active: 37% and the “Cell Painting induction” value [1] is reported as 15.4%.

`CCCn1c2ccccc2c2cnn(CC(=O)NC3CCN(Cc4ccccc4)CC3)c(=O)c21` was tested, and the “Cell Painting induction” value (run: confirmation repeat) was active: 28.7% and the “Cell Painting induction” value [1] was 30.2%.

`CCC1Oc2ccc(C)cc2N(CC(=O)NCCCN2CCN(Cc3ccccc3)CC2)C1=O` (stereo not given) was tested, and the “Cell Painting induction” value (run: confirmation repeat) was active: 16.9% and the “Cell Painting induction” value [1] was 16.9%.

`O=S(=O)(c1ccccc1)c1nc(-c2ccc(F)cc2)oc1NCC1CCCO1` (stereo not given) was tested, and the “Cell Painting induction” value (run: confirmation repeat) was active: 25.2% and the “Cell Painting induction” value [1] was 18.3%.

In the case of `O=C(NCCc1ccc(Cl)cc1)c1cc(S(=O)(=O)N2CCCCC2)c[nH]1`, the “Cell Painting induction” value (run: confirmation repeat) is reported as inactive: 4% and the “Cell Painting induction” value [1] is reported as 12.4%.

Source: the supplement of paper PMC11181314
